Publication PMC4336329 (PLoS ONE, 2015)
Screen size: about 310,000 compounds; about 14,000 (4.5%) showed an effect of 50% or more. The effect is printed as a negative number. The list shows a part of the results.

Target: human ether-à-go-go-related gene (hERG) potassium channel (human, UniProt Q12809)
Assay: primary screen, population patch clamp on CHO cells stably expressing hERG
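Further: peak tail current of the secondary pulse compared with the same well before compound.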

Chain of human ether-à-go-go-related gene (hERG) potassium channel (Q12809 whole entry, looked up): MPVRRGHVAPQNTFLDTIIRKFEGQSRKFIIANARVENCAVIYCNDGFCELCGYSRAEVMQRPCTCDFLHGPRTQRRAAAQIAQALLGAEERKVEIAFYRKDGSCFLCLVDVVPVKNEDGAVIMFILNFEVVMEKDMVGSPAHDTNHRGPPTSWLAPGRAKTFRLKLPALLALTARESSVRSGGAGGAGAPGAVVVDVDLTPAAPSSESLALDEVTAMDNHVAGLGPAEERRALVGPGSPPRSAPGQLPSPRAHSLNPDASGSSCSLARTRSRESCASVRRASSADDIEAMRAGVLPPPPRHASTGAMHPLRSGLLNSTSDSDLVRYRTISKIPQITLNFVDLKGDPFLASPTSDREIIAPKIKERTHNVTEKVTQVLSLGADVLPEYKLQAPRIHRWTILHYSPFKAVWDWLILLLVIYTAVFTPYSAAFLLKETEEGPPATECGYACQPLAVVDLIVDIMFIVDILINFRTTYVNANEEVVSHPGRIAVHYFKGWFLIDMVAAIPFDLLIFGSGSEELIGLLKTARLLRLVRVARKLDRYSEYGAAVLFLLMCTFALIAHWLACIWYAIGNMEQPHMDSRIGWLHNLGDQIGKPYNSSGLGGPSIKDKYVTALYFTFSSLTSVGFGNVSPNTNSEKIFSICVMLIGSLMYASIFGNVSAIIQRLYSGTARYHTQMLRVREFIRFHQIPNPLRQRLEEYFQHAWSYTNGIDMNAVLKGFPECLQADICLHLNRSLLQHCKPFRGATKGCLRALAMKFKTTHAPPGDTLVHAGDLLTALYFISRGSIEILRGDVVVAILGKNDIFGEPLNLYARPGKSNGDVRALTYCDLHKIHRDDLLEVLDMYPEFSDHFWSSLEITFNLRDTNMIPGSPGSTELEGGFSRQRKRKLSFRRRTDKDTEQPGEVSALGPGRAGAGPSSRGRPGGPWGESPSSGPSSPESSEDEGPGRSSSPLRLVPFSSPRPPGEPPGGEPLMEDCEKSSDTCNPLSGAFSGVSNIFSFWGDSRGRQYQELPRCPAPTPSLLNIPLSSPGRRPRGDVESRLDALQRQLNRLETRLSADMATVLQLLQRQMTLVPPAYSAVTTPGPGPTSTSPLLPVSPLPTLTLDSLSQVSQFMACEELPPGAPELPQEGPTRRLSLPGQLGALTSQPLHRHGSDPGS

Compound	hERG current change (%, negative = inhibition) at 10uM [%]
CCOC(=O)c1c(C)[nH]c(C)c1S(=O)(=O)N(C)CC(=O)Nc1ccccc1F	-2.7
CCOC(=O)CN(Cc1ccccc1)S(=O)(=O)c1ccc(NC(C)=O)cc1	-27.9
CCCCn1c(=O)n(CC(=O)Nc2ccc(C)c(Cl)c2)c(=O)c2c1ncn2Cc1ccco1	-6.22
COc1cc(CNc2ccc3[nH]c(=O)[nH]c3c2)ccc1OCc1ccc(C)cc1	14.1
COc1ccc(-c2nc(N)n(C(C)=O)n2)cc1	-3.64
COc1ccc(S(=O)(=O)NC(C)C(=O)Nc2ccc3c(c2)OCCO3)cc1OC (stereo not shown)	5.02
Cc1sc2nc(C)n(/N=C/c3ccc(O)cc3O)c(=O)c2c1C	19.1
Cc1cccc(C(=O)OC(C)C(=O)NC(=O)NC2CCCCC2)c1O (stereo not shown)	7.96
COC(=O)C1C2C=CC(C3CC23)C1C(=O)OCC(=O)c1ccccc1 (stereo not shown)	4.29
CSCCC(NS(=O)(=O)c1ccc(Cl)cc1)C(=O)OCC(=O)NC12CC3CC(CC(C3)C1)C2 (stereo not shown)	11.5
O=C(CSCc1ccc(Cl)cc1)Nc1ccc2c(c1)OCO2	-4.62
COc1ccccc1-n1c(C)cc(/C=C2\C(=N)N3N=C(CC(=O)N4CCOCC4)SC3=NC2=O)c1C	6.12
O=C(NCCCN1CCOCC1)c1cc(-c2ccc(Br)cc2)nc2ccccc12	-39.7
CCc1c(C)sc(NC(=O)OC)c1C(=O)N1CCOCC1	-7.69
CCOC(=O)c1cc2c(ccn2C)n1CC(=O)N1CCC(Cc2ccccc2)CC1	-24.1
COC(=O)CCN1CCN(S(=O)(=O)c2ccccc2Br)CC1.O=C(O)C(=O)O	1.85
CC1=CC(C)=[NH+]c2ccccc2N1.O.[Cl-]	9.17
COc1ccc(OCc2nnc(SCC(=O)N(C)Cc3ccccc3)n2N)cc1	2.58
Oc1c(Br)cc(Br)cc1C=Nc1ccc2c(c1)OCO2	6.62
COC(=O)c1cc(S(=O)(=O)Nc2cccc(C)c2C)cn1C	13.1
CCOc1ccc(S(=O)(=O)Nc2ccc(C(=O)NCCCN3CCCC3=O)cc2)cc1	0.2
COc1ccc(COC(=O)N/N=C/c2cccs2)cc1	-8.61
COc1ccc2oc(C(=O)NC3CCCCC3)c(C)c2c1	-0.357
Cc1ccc2c(c1)C(N1CCCC1=O)CC(c1ccco1)N2 (stereo not shown)	-10.3
CCCNC(=O)CN1CCC(c2nc3ccccc3[nH]2)CC1	15.6
CN(C)c1ccc(S(=O)(=O)NCC(=O)OCC(=O)Nc2cccc(Cl)c2)cc1[N+](=O)[O-]	-8.27
COc1ccc(OC)c(NC(=O)CSc2nnnn2-c2ccccc2F)c1	8.51
Cc1ccc(-n2[nH]c(C)c(/C=N/Nc3ccc([N+](=O)[O-])cc3[N+](=O)[O-])c2=O)cc1	23.9

Compound	hERG current change (%, negative = inhibition) at 10uM [%]
COC(=O)c1sccc1NC(=O)c1csc(C)c1	-13.3
C/C(CS(=O)(=O)c1ccccc1)=N\O	16.1
COCCCn1cnc2oc3nc4ccccc4nc3c2c1=O	-11.7
C=CCOc1ccc(CNc2nn[nH]n2)cc1OC	7.39
Cc1onc(-c2ccccc2)c1C(=O)N1CCc2ccccc21	14.4
O=C(Nc1ccccc1)N(CCN1CCOCC1)Cc1cccc(Cl)c1	-22.7
Cc1n[nH]c(=O)c2c1nnn2Cc1ccccc1Cl	9.83
Cc1ccc(CN2CC(C(=O)N3CCN(S(=O)(=O)c4cccc(F)c4)CC3)CC2=O)cc1 (stereo not shown)	-32.6
Cc1cc(=O)oc2cc(OCC(=O)N3CCN(C(=O)C4COc5ccccc5O4)CC3)c(Cl)cc12 (stereo not shown)	-48
CCOc1ccccc1N(CC(=O)Nc1cccc(OC)c1)S(=O)(=O)c1ccccc1	9.84
O=C(O)c1cccc(Nc2nc(-c3ccc([N+](=O)[O-])cc3)nc3ccccc23)c1	7.86
O=C(Cn1c(=O)n(-c2ccccc2)c(=O)c2oc3ccccc3c21)Nc1ccccc1	4.87
CNc1ccn(C2CCCO2)c(=O)n1 (stereo not shown)	17.9
Cc1ccc(C(=O)/C=C\C(=O)c2ccc(C)cc2)cc1	27.3
O=C(Cc1ccc(Cl)cc1)N/N=C/c1cccc(O)c1	-28.2
Cc1ccc(C(=O)N2CCN(c3ccc(NC(=O)c4cccnc4Cl)cc3)CC2)cc1	-27.8
Cc1ccc2cc(C(c3nnnn3C3CCCC3)N3CCOCC3)c(=O)[nH]c2c1C (stereo not shown)	-9.02
Cc1cccc(Nc2nc(-c3sc(C)nc3C)cs2)c1	9.95
CN(Cc1ccccc1)C(=O)c1ccc(NC2=NC3CS(=O)(=O)CC3S2)cc1 (stereo not shown)	-7.2
CCOc1ccc2nc(N(CCN(CC)CC)C(=O)c3cccc([N+](=O)[O-])c3)sc2c1.Cl	-59.5
CC(C)c1ccc(C2C(C(=O)c3ccco3)=C(O)C(=O)N2CCN2CCOCC2)cc1 (stereo not shown)	18.5
CC(=O)c1cccc(OCc2cc(C(=O)N(C)C(C)c3ccccn3)no2)c1 (stereo not shown)	-4.32
Cc1[nH]c2ccccc2c1SCc1ccccc1	-23
CCS(=O)(=O)N1CCCC(C(=O)NCc2ccccc2Cl)C1 (stereo not shown)	-3.54
Cc1ccc2c(c1)N(CC(=O)N(Cc1ccccn1)Cc1ccco1)C(=O)C(C(C)C)O2 (stereo not shown)	-41.2
CCOC(=O)c1c(C)[nH]c(C)c1C(=O)COc1ncnc2cc([N+](=O)[O-])ccc12	-21.2
CCCCCCCCSc1nnc(CSc2nc3nc(C)cc(C)n3n2)o1	-16.7
